According to PubChem BioAssay AID624296 (National Center for Advancing Translational Sciences (NCATS), 2012):
Values joined by “and” are separate entries in the source; they are usually repeats but may differ in a detail not shown here. Equal values may be shown once. About 9,900 (2.8%) of roughly 350,000 compounds were called active. Inconclusive means that the source gave no clear call. Such entries were picked first, then a sample of the others. Calls come from the whole dose curve; as a rule, active = well fitted activation curve with a large enough effect; inconclusive = small, poorly fitted or top-dose-only effect; inactive = no such curve, though single readings can be large or run the other way. Where the call is inconclusive, the potency comes from a doubtful curve fit.

Experiment: A quantitative high throughput screen for small molecules that induce DNA re-replication in MCF 10a normal breast cells. Note: nearly all actives have a fitted effect of over 50% in size.
Conditions: MCF 10A DNA re-replication, Hoechst nuclear intensity, 48 h; series mostly up to 46.1 µM
Potency is the fitted concentration of half-maximal effect; tags give direction and shape of the fitted curve.

| Compound | Potency |
| --- | --- |
| Nc1[nH]n2c(=O)cc(-c3ccccc3)nc2c1N=Nc1ccccc1 | inconclusive: 2.31 µM [activator, partial curve, poor fit] |
| Cc1cc(C)c(S(=O)(=O)N2CCN(S(=O)(=O)N3CCC(C)CC3)CC2)c(C)c1 | inconclusive: 5.8 µM [activator, full curve, poor fit] |
| S=c1[nH]nc(Cc2ccc(Cl)cc2)n1-c1ccc2c(c1)OCCO2 | inactive |
| O=C(Nc1cccc(C(=O)O)c1)/C(=C\c1ccccc1)NC(=O)c1ccccc1Cl | inconclusive: 18.4 µM [activator, partial curve, poor fit] |
| COC(=O)C1=C(C)NC(=O)NC1/C=C/c1ccccc1 (stereo not given) | inconclusive: 6.51 µM [activator, single point] |
| Cc1ccc(-n2cc(CNCCCn3ccnc3C)c(-c3ccc(F)cc3)n2)cc1 | inconclusive: 20.6 µM [activator, single point] |
| Cc1ccc(C)c(NC(=S)NCCSc2ccc(Cl)cc2)c1 | inconclusive: 29.1 µM [activator, single point] |
| CCOC(=O)c1c(C)oc2ccc(NS(=O)(=O)c3cccs3)cc12 | inconclusive: 29.1 µM [activator, single point] |
| COC(=O)c1ccccc1NC(=S)N(Cc1ccc2c(c1)OCO2)Cc1cc2cc(OC)ccc2[nH]c1=O | inconclusive: 18.4 µM [activator, single point] |
| COc1ccc(OC)c(-c2nc3cc4ccccc4cc3nc2-c2ccccc2)c1 | inconclusive: 29.1 µM [activator, single point] |
| CCN1CCN(c2ccc(S(=O)(=O)N3CCCCC3)cc2NC(=O)COc2cc(C)ccc2Cl)CC1 | inconclusive: 20.6 µM [activator, single point] |
| Cc1cc(=O)[nH]c(SCC(=O)Nc2cccc(C(F)(F)F)c2)n1 | inconclusive: 16.4 µM [activator, partial curve, poor fit] |
| CC(C)Oc1ccc(CCC(=O)N/N=C/c2ccncc2)cc1 | inactive |
| Cc1c(C(=O)OCC(=O)Nc2cccc(S(N)(=O)=O)c2)oc2c1ccc1ccccc12 | inconclusive: 29.1 µM [activator, single point] |
| O=C(CSc1nnc(CNC(=O)c2ccco2)o1)Nc1ccc(F)cc1 | inactive |
| CCc1ccc2c(COC(=O)C3CSC4(C)CCC(=O)N34)cc(=O)oc2c1 (stereo not given) | inactive |
| COc1ccccc1C1C2=C(CC(C)(C)CC2=O)N(CC(=O)O)C2=C1C(=O)CC(C)(C)C2 | active: 20.6 µM |
| C=CC(=O)Nc1cccc(Oc2ccnc3[nH]ccc23)c1 | inconclusive: 20.6 µM [activator, partial curve, poor fit] |
| CNC(=O)CC12CC3CC(CC(C3)C1)C2 | inactive |
| COc1ccccc1N1CCN(C(=S)Nc2ccc(F)cc2)CC1 | inactive |
| Cc1[nH]c2ccccc2c1C(=O)C(=O)NCCOc1ccccc1 | inconclusive: 2.91 µM [activator, partial curve, poor fit] |
| O=C(NCc1ccccc1)c1ccc(-c2ccccc2F)o1 | inconclusive: 29.1 µM [activator, single point] |
| CC(C)(O)C(=O)NN(C(=O)c1ccccc1)c1cccc(Br)c1 | inactive |
| Cn1c(=O)c([N+](=O)[O-])c(Cl)c2ccccc21 | active: 3.66 µM |

| Compound | Potency |
| --- | --- |
| CCOC(=O)Cn1c(=N)n(CCOc2ccc(Br)cc2)c2ccccc21 | inactive |
| COc1ccc(S(=O)(=O)N2CCOCC2)cc1C(=O)NCC(c1ccccc1)c1ccccc1 | inconclusive: 9.2 µM [activator, partial curve, poor fit] |
| Cn1c(=N)n(CC(=O)C(C)(C)C)c2ccccc21 | inconclusive: 29.1 µM [activator, single point] |
| Cn1cccc1C(C#N)c1ncc(C(F)(F)F)cc1Cl (stereo not given) | inconclusive: 29.1 µM [activator, single point] |
| COc1ccc(/C=N/NC(=O)c2ccc(NC(=O)c3ccccc3Br)cc2)cc1 | inconclusive: 13 µM [activator, partial curve, poor fit] |
| C=CCSc1cc(C)nc2c(-c3ccccc3)c(C)nn12 | inconclusive: 8.2 µM [activator, partial curve, poor fit] |
| Cc1csc(SCC(=O)NC(=O)C2CCCCC2)n1 | inconclusive: 20.6 µM [activator, partial curve, poor fit] |
| O=C(c1ccc(NS(=O)(=O)c2ccc(F)cc2)cc1)N1CCN(c2ccccc2O)CC1 | inconclusive: 32.6 µM [activator, partial curve, poor fit] |
| COc1cc2[nH]c(C(=O)NCC3CCCO3)cc2c(OC)c1OC (stereo not given) | inconclusive: 5.17 µM [activator, partial curve, poor fit] |
| CCC(OC(=O)C(C)N1C(=O)C(=O)c2ccccc21)C(=O)Nc1ccccc1OC (stereo not given) | inconclusive: 20.6 µM [activator, single point] |
| COc1ccc(OCC(=O)NNC(=O)C2CCN(c3ncnc4sc(C)c(C)c34)CC2)cc1 | inconclusive: 14.6 µM [activator, partial curve, poor fit] |
| O=C(COc1ccc(S(=O)(=O)N2CCCC2)cc1)NCC1CCCO1 (stereo not given) | inactive |
| Cn1nc(C(C)(C)C)cc1C(=O)O | inactive |
| CCN(CC)CCn1c(=O)n(-c2ccc(Cl)cc2)c(=O)c2c3c(sc21)CN(C)CC3 | inconclusive: 9.2 µM [activator, partial curve, poor fit] |
| O=C(c1ccco1)N(Cc1cccc(Br)c1)C1CCS(=O)(=O)C1 (stereo not given) | inactive |
| O=C(O)CCCNC(=O)C(c1ccccc1)c1ccccc1 | inactive and inconclusive: 23.1 µM [activator, partial curve, poor fit] |
| O=C(NC(=S)Nc1ccc(-c2nc3ncccc3o2)cc1)c1ccccc1F | inconclusive: 29.1 µM [activator, single point] |
| Cc1cc(O)c(N)c(C)c1Cl | inconclusive: 20.6 µM [activator, single point] |
| Cc1ccccc1Cn1cnc2c(NS(C)(=O)=O)c(C)c(C)cc21 | inconclusive: 18.4 µM [activator, partial curve, poor fit] |
| O=C(COc1cccc(NC(=O)c2ccccc2)c1)c1ccc(F)cc1 | inactive |
| O=S(c1cc(Cl)cc(Cl)c1O)c1cc(Cl)cc(Cl)c1O | active: 13.3 µM |
| CNC(=S)N/N=C/c1ccc(N(C)C)cc1 | inconclusive: 6.51 µM [activator, single point] |
| Cc1ccc(S(=O)(=O)N2CCN(C)CC2)c(C)c1 | inactive |
| CCc1nnc(NC(=O)CSc2nnc(-c3ccco3)n2CCOC)s1 | inactive |

| Compound | Potency |
| --- | --- |
| Cc1ccccc1NC(=O)C(=O)NCc1ccccn1 | inactive |
| Cc1cccn2cc(-c3c[nH]c4ccccc34)nc12 | inactive |
| COc1cc(-c2nnc(SCC(=O)N(C)C3CCS(=O)(=O)C3)o2)cc(OC)c1OC (stereo not given) | inactive |
| Cc1ccc(S(=O)(=O)N2CCC(C(=O)Nc3ccccc3N3CCCCC3)CC2)cc1 | inactive |
| CCCCN(C)Cc1c(C(=O)N2CCc3ccccc3C2)nc2ccc(Cl)cn12 | inconclusive: 18.4 µM [activator, single point] |
| CCc1c(C)sc(NC(=O)c2cccs2)c1C(=O)OC(C)C | active: 10.3 µM |
| C=CCCC1(C)C(=O)N(c2ccccc2)c2ccccc21 (stereo not given) | inconclusive: 25.9 µM [activator, single point] |
| Cn1c(=N)n(CC(=O)c2ccc(F)cc2)c2ccccc21 | inactive |
| O=C(Nc1nccs1)c1ccc(S(=O)(=O)NCc2cccs2)cc1 | inconclusive: 29.1 µM [activator, single point] |
| Cc1ccc(-c2nc3c(cnn3-c3ccccc3)c(=O)o2)cc1 | inconclusive: 0.651 µM [activator, full curve] |
| O=C(Nc1nccs1)c1ccc(Br)s1 | inactive |
| NC(=O)c1ccccc1NC(=O)CCCCCn1nnc2ccccc2c1=O | inconclusive: 4.11 µM [activator, partial curve, poor fit] |
| Cc1ccc(Nc2nc(C)nc3c2oc2ccccc23)cc1 | inconclusive: 32.6 µM [activator, partial curve, poor fit] |
| COCc1[nH]nc2c1C(c1ccc(OC)cc1)C(C#N)=C(N)O2 (stereo not given) | inconclusive: 35.5 µM [activator, single point] |
| C#CCOCCOCCOCCNc1nc(N2CCOCC2)nc(N2CCN(C(=O)[C@H](CC(N)=O)n3cc(C(N)[C@@H](C)CC)nn3)CC2)n1 (stereo not given in full) | inconclusive: 0.731 µM [activator, full curve, poor fit] |
| O=C(CCCCn1c(=O)[nH]c2ccccc2c1=O)N1CCN(c2cccc(C(F)(F)F)c2)CC1 | inconclusive: 29.1 µM [activator, single point] |
| COc1cc(/C=C(\C#N)c2nc3ccccc3s2)ccc1OCC(=O)Nc1ccccc1 | active: 6.51 µM |
| COc1ccccc1OCCCCN1CCN(C(c2ccccc2)c2ccccc2)CC1 | inconclusive: 18.4 µM [activator, single point] |
| Cn1ccc(NC(=O)c2ccc(Cl)cc2Cl)n1 | inactive |
| COc1ccc(NC(=O)CS(=O)(=O)c2cn(CC(=O)N3CCCC3)c3ccccc23)c(OC)c1 | inactive |
| O=C(Nc1cccc(-c2nc3ccccc3[nH]2)c1)c1ccccn1 | inconclusive: 29.1 µM [activator, single point] |
| COc1ccc(C)cc1N(C(=O)c1ccco1)C(C(=O)NC1CCCC1)c1ccc(N2CCOCC2)cc1 (stereo not given) | inactive |
